# Experimental data as given in PubChem BioAssay AID1240 (Sanford-Burnham Center for Chemical Genomics, 2008).
# About 800 (1.6%) of roughly 50,000 compounds showed an effect of 50% or more. This is one part of the list.
# Target: Bcl-2-like protein 10 (Homo sapiens) (UniProt Q9HD36)
# Assay: Phenotype converters, Bcl-B/TR3 peptide binding displacement, primary biochemical FP (AID 1240);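 further: 0% = Bcl-B with tracer peptide and DMSO and 100% = tracer peptide lacking Bcl-B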
# Details: GST-Bcl-B / FITC-TR3 peptide fluorescence polarization; stronger effect = higher value; compound at 3.75 mg/L
# Chain of UniProt Q9HD36 (Q9HD36 whole entry, looked up): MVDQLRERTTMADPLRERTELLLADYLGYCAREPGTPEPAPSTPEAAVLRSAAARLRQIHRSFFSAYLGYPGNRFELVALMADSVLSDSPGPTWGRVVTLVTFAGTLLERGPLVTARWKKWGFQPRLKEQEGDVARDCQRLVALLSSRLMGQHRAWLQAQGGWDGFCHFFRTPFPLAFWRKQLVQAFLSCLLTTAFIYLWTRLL
row,SMILES,displacement
1,O=[N+]([O-])/C(=C\c1ccccc1)c1ccccc1,-12.2%
2,COc1cc(N)c(C(c2ccc(C)o2)c2ccc(C)o2)cc1OC,5.3%
3,COC(=O)C(=O)/C=C(/O)c1ccc(C)cc1,7.7%
4,Cc1ccccc1CNC(=O)CN(c1ccc(Oc2ccccc2)cc1)S(C)(=O)=O,7.2%
5,O=C(Nc1sc2c(c1C(=O)Nc1ccccc1)CCC2)c1cccc(Br)c1,-4.9%
6,O=C(NCCNc1ccc(Cl)cc1[N+](=O)[O-])c1ccccc1Br,5.3%
7,O=C(CCN1C(=O)/C(=C/c2ccc(Cl)cc2)SC1=S)Nc1cccc(O)c1,-3.6%
8,CC(NC(=O)COc1ccc(Br)cc1)c1ccccc1 (configuration not stated),3.2%
9,C/C(=N\NC(=O)c1ccco1)c1ccco1,5.3%
10,COc1ccccc1C(=O)N1CCN(S(C)(=O)=O)CC1,9.2%
11,O=C(NCc1ccccc1Cl)C(=O)NC1CC1,5.6%
12,CCCOc1cccc(C(=O)Nc2scc(-c3ccccc3Cl)c2C(=O)OC)c1,5.1%
13,CN1CCN(c2ccc([N+](=O)[O-])cc2/C=N/NC(=O)CCc2ccccc2O)CC1,-10.4%
14,CC(C)(C)c1csc(N/N=C/c2ccc(O)cc2)n1,-18.6%
15,C=CCNC(=O)/C(=C/c1ccc(C)cc1)NC(=O)c1ccc(C)cc1,12.7%
16,Cc1ccc(S(=O)(=O)N2CCC(Cc3ccccc3)CC2)cc1C,10%
17,O=C(Nc1cccc(Cl)c1)/C(=C\c1cccs1)NC(=O)c1cccs1,-15.7%
18,O=C(NCc1cccnc1)c1ccc(S(=O)(=O)N2CCOCC2)cc1,8.7%
19,O=C1NC(=Nc2ccc(Br)cc2)S/C1=C\c1ccc2c(c1)OCO2,68.8%
20,C=CCn1c(SCC(=O)N2CCOCC2)nc2sc3c(c2c1=O)CCCC3,0.6%
21,CSc1ccc(/C=C/C(=O)c2ccc(NC(=O)c3cccs3)cc2)cc1,8.5%
22,O=C(COc1ccc2ccc(=O)oc2c1)Nc1ccccn1,29%

row,SMILES,displacement
1,O=C(O)CCCC(=O)N1CCN(Cc2ccccc2)CC1,0.5%
2,CC(C)NC(=O)c1ccc(I)cc1,12.7%
3,O=C(Nc1ccccn1)c1ccc2c(c1)OCO2,-1%
4,O=C(CN1CCN(C(c2ccccc2)c2ccccc2)CC1)Nc1ccc(F)cc1,9.6%
5,O=C(N=C1SCC(=O)N1c1ccccc1Cl)c1ccco1,7.9%
6,Cc1ccc(C)c(NC(=O)C2CC(=O)N(c3ccc(Br)cc3)C2)c1 (configuration not stated),0.6%
7,CC(=O)c1ccc(NC(=O)C2CCC2)cc1,-10.9%
8,CCCOc1cccc(C(=O)Nc2ccc(F)c([N+](=O)[O-])c2)c1,13.4%
9,CCN(CC)C(=O)N1c2ccccc2CCc2ccccc21,-7.4%
10,CCn1c(O)c(/C=N/N=C2CCCC2)c2ccc(C3=NNC(=O)CC3)cc21,45.9%
11,O=C(CCNc1n[nH]c(=O)[nH]c1=O)N/N=C/c1c[nH]c2ccccc12,-14.6%
12,Cc1ccc(-n2c(=O)c3cc4c(=O)n(-c5ccc(C)c(C)c5)c(=O)c4c(C(=O)c4ccccc4)c3c2=O)cc1C,12.2%
13,O=C(/C=C/c1ccco1)NC(=S)Nc1ccccc1,-6.7%
14,COc1ccc(-c2noc(-c3ccc(-c4ccccc4)cc3)n2)cc1,-11.4%
15,Cc1ccc2ccc(S(=O)(=O)NCc3ccco3)cc2c1,-6%
16,COc1ccc(NC(=O)CN2C(=O)/C(=C/c3cccc(Br)c3)SC2=S)cc1,11.6%
17,O=C(CSc1nc2ccccc2s1)N(c1ccccc1)c1ccccc1,-12.8%
18,O=C(Nc1cccc(-c2nc3ccccc3o2)c1)c1ccc(NC(=O)c2ccc([N+](=O)[O-])o2)cc1,2.4%
19,O=C(NCc1ccco1)C1CN(S(=O)(=O)c2ccccc2)CCN1S(=O)(=O)c1ccccc1 (configuration not stated),9.8%
20,Cc1ccc(/C(O)=C2\C(=O)C(=O)N(c3ccc(O)cc3)C2c2ccc(C)cc2)cc1 (configuration not stated),-11.3%
21,CCOC(=O)c1c(C)[nH]c(/C=C(\C#N)C(=N)N2CCOCC2)c1O,40.9%
22,COc1ccc(CNC(=O)c2cccc(N(C)C)c2)cc1,7.1%

row,SMILES,displacement
1,CN1C(=O)/C(=C\c2ccc(OCCOc3ccc(C(C)(C)C)cc3)cc2)SC1=S,6%
2,COCC(O)CS(=O)(=O)Cc1ccc(Cl)cc1 (configuration not stated),0.9%
3,O=C(/C=C/c1ccc(OCc2ccccc2)cc1)c1cccc(Br)c1,8.8%
4,CC(=O)C1=C(O)C(=O)N(c2nc3ccccc3s2)C1c1ccc(Cl)cc1 (configuration not stated),-2.6%
5,CC(=O)N1CCN(C(CNS(=O)(=O)c2ccc(C)cc2)c2ccccc2)CC1 (configuration not stated),0.1%
6,COc1ccc(C(=O)/C=C/c2ccc(SC)cc2)cc1OC,-19.8%
7,O=C(Nc1nc2ccccc2[nH]1)C1CCCO1 (configuration not stated),8.5%
8,CN1C(=O)C(=Cc2ccccc2OCc2ccc([N+](=O)[O-])cc2)C(=O)N(C)C1=O,11%
9,O=C1C2C(C(=O)N1/N=C/c1ccc(Cl)cc1)C1C=CC2C12CC2 (configuration not stated),11.4%
10,COc1ccc(N(CC(=O)NN=C2CCN(C)CC2)S(=O)(=O)c2ccccc2)cc1Cl,5.2%
11,Cc1cc2ncn(CC(O)COc3ccc4ccccc4c3Br)c2cc1C (configuration not stated),17%
12,COc1ccc2nc(NC(=O)COc3ccccc3Cl)sc2c1,6.7%
13,O=C(O)c1cccc(COc2ccc(C=C3C(=O)c4ccccc4C3=O)cc2)c1,21.8%
14,COc1ccc(CCC(=O)C2(O)CCCCC2)cc1,-12.8%
15,CC(=O)Nc1ccc(/C=N/c2nc3c(C)cc(C)cc3s2)cc1,3.9%
16,N#CCOc1ccccc1/C=C1/SC(=S)NC1=O,8%
17,O=C(Oc1ccccc1)Oc1c(Cl)cc2oc(=O)sc2c1Cl,-6.8%
18,O=S(=O)(Nc1ccc(-c2nc3ccccc3o2)cc1)c1ccccc1,6.4%
19,O=C(NCC1CCCO1)C(=O)Nc1ccccc1Cl (configuration not stated),-16.2%
20,Cc1c(Cc2ccccc2)c(=O)oc2c(C)c(OCC(=O)C(C)(C)C)ccc12,-3.2%
21,COc1ccc(CN2CCN(C(=O)c3cccc(Cl)c3)CC2)c(OC)c1OC,-7.7%
22,CN1C(=O)C(=Cc2ccc(OCCOc3ccc([N+](=O)[O-])cc3)cc2)C(=O)N(C)C1=O,9.9%

row,SMILES,displacement
1,CCOc1ccc(-c2cc(C(=O)NCc3ccc(F)cc3)c3ccccc3n2)cc1,-12.8%
2,O=[N+]([O-])c1cc(-n2ncnc2-c2ccccc2C(F)(F)F)ccc1Cl,-4.8%
3,COc1ccc(NC(=O)c2cc3n(n2)C(C(F)(F)F)CC(c2ccc(Cl)c(Cl)c2)N3)c(OC)c1 (configuration not stated),3.4%
4,Cc1onc(-c2c(Cl)cccc2Cl)c1C(=O)N1CCN(c2cccc(Cl)c2)CC1,12.6%
5,COc1ccc(CN2CCN(S(=O)(=O)c3ccc(C)cc3)CC2)cc1,0.1%
6,Cc1c(Cl)cccc1NC(=O)C1c2ccccc2Oc2ccccc21,11.9%
7,O=C1NC(=S)S/C1=C/c1cc2c(cc1Cl)OCO2,28.9%
8,Cc1ccc(/C=C2\SC(=S)N(CC(=O)O)C2=O)o1,26.5%
9,CCOC(=O)C1=C(C)NC(=O)N(C(C)=O)C1c1cccc([N+](=O)[O-])c1 (configuration not stated),0.4%
10,CCOC(=O)c1ccc2c(c1)C1C=CCC1C(c1ccc(Br)cc1)N2 (configuration not stated),14.5%
11,CCn1c2ccccc2c2cc(CN3CCN(Cc4ccc(OC)c(OC)c4OC)CC3)ccc21,2.1%
12,Fc1ccc(NC(=S)NCCC(c2ccccc2)c2ccccc2)cc1,-7.4%
13,COc1ccc(N=Cc2ccc(C)o2)cc1,-9.7%
14,C=CCn1c(/C=C(/OC(=O)c2ccccc2)c2ccccc2)nc2ccccc21,9.4%
15,Cc1ccccc1-c1nc(-c2ccc(F)cc2)no1,-7%
16,O=C(N/N=C/c1ccco1)c1cc(-c2ccc(Cl)cc2)n[nH]1,-6%
17,O=C(NCC1CCCO1)c1ccc(Cl)cc1 (configuration not stated),-11.3%
18,COc1cc(/C=N/NS(=O)(=O)c2ccc(C(C)(C)C)cc2)cc(OC)c1OC,5.5%
19,N/C(=N/OC(=O)c1cccc([N+](=O)[O-])c1)c1ccc(Br)cc1,28.7%
20,O=C(N/N=C\c1cn(-c2ccccc2)nc1-c1ccccc1)c1ccc([N+](=O)[O-])cc1,3.3%
21,C=CCN1C(=O)/C(=C\c2ccc(C(=O)OC)cc2)SC1=S,7.8%
22,Cc1cc(C)cc(NC(=O)c2ccc([N+](=O)[O-])o2)c1,-3.3%

row,SMILES,displacement
1,COc1ccc(/C=N/NC(=O)C(=O)NCc2ccccn2)cc1,-5.1%
2,COc1ccc(OC)c(C2C(C(C)=O)=C(O)C(=O)N2CC2CCCO2)c1 (configuration not stated),-5.4%
3,COc1ccc(C(=O)Nc2ccc3nn(-c4ccc(C)c(Cl)c4)nc3c2)cc1[N+](=O)[O-],12.7%
4,O=C(CCNS(=O)(=O)c1ccccc1[N+](=O)[O-])Nc1ccc(Br)cc1,8.1%
5,C/C(=N\N=C1\NC(=O)C(CC(=O)Nc2cccc(C)c2C)S1)C(C)(C)C (configuration not stated),10.5%
6,Cc1ccc(-c2cc3nc(C)c(Cl)c(=O)n3[nH]2)cc1,19.2%
7,COc1cc(/C=C2/SC(=S)N(C)C2=O)cc(Br)c1OCc1ccc(F)cc1,17.9%
8,CCOC(=O)CCCN1C(=O)S/C(=C/c2ccccc2)C1=S,6.7%
9,O=C1CC(N2CCC(O)(c3ccc(Br)cc3)CC2)C(=O)N1c1ccc(Cl)cc1 (configuration not stated),-2.5%
10,COc1cc(/C=C2\C(=O)N(c3ccc(S(N)(=O)=O)cc3)N=C2C)cc(Cl)c1OCc1ccccc1,5.5%
11,CCOC(=O)COc1ccc(/C=C2\C(=O)NN(c3ccc(Cl)c(Cl)c3)C2=O)cc1OC,14.2%
12,CCOC(=O)C1=C(O)/C(=C/c2ccc(Cl)cc2)SC1=Nc1ccc([N+](=O)[O-])cc1,-7.6%
13,O=C(Nc1cccc(Br)c1)c1cc([N+](=O)[O-])ccc1Cl,3.8%
14,CCCCOC(=O)c1ccc(NC(=S)NC(=O)c2ccco2)cc1,12.6%
15,O=C(Nc1ccc(S(=O)(=O)Nc2nccs2)cc1)C(Cl)(Cl)Cl,6.4%
16,CC1=C(C(=O)Nc2ccccc2C)C(c2ccc3c(c2)OCO3)C2=C(CC(C)(C)CC2=O)N1 (configuration not stated),5.9%
17,O=C(/C=C/c1ccc(F)cc1)N1CCN(c2ccc(Cl)cc2)CC1,1.7%
18,O=C(Nc1ccc(N2CCCCC2)c(Cl)c1)c1ccc([N+](=O)[O-])cc1Cl,4.8%
19,Cc1ccc(C(=O)Nc2ccccc2C(=O)Nc2ccncc2)cc1,-6.8%
